Measurements: the supplement of paper PMC10369915
Some of the results follow. No stated cut-off is given here; in the data, active = 3.2 or more and inactive = the rest. The signal is at background level for most entries.

B1: NDUFS1_Y236_R241Q (peptide)
chain: LTSKPYAFTAQ
B2: NDST1_Y711_YF (peptide)
chain: PADRAYSWFQH
B3: MYORG_Y36_M35V (peptide)
chain: AAAAVYTFLPD
B4: NAT1_Y208 (peptide)
chain: ESMNTYLQTSP
B5: NANS_Y71_E68D (peptide)
chain: ALDRPYTSKHS
B6: NEDD4L_Y679_Y679C (peptide)
chain: EMFNPCYGLFE
B7: NEFL_Y443_P440L (peptide)
chain: SFLSYYTSHVQ
B8: NDUFS8_Y84 (peptide)
chain: PATINYPFEKG
B9: NCR1_Y84_D87Y_YF (peptide)
chain: NKVKFYIPFMN
B10: NDST1_Y711_R709Q_YF (peptide)
chain: PADQAYSWFQH
B11: NCR1_Y84 (peptide)
chain: NKVKFYIPDMN
B12: NAT1_Y208_M205V (peptide)
chain: ESVNTYLQTSP
B13: NCKIPSD_Y660 (peptide)
chain: KLRMEYLSLMH
B14: NDUFS1_Y236 (peptide)
chain: LTSKPYAFTAR
B15: NEDD4_Y627_YF (peptide)
chain: ILGRTYFVNHE
B16: NEDD4_Y627_Y627H (peptide)
chain: ILGRTHYVNHE
B17: NCR1_Y84_K82Q (peptide)
chain: NKVQFYIPDMN
B18: NATD1_Y45 (peptide)
chain: RAVLLYEYVGK
B19: NAMPT_Y175 (peptide)
chain: KILAKYLLETS
B20: NANS_Y188_P189L (peptide)
chain: QCTSAYLLQPE
B21: NARS2_Y138_YF (peptide)
chain: RHPLEYLRQFP
B22: NBEAL2_Y2748_E2747K (peptide)
chain: SGETKYNPTEA
B23: NEDD9_Y177_YF (peptide)
chain: FQKDVYDIPPS
B24: NCF1_Y41_R42Q (peptide)
chain: SEKVVYQRFTE
B25: NDST1_Y711_R709Q (peptide)
chain: PADQAYSWYQH
B26: NEFL_Y442_P440L_YF (peptide)
chain: RSFLSYFTSHV
B27: NDST1_Y714_R709Q_YF (peptide)
chain: QAFSWYQHQRA
B28: MYOC_Y479_P481L (peptide)
chain: SSMIDYNLLEK
B29: NEDD4_Y627 (peptide)
chain: ILGRTYYVNHE
B30: NEDD9_Y177_D178N (peptide)
chain: YQKDVYNIPPS
B31: NDUFS8_Y84_P79L (peptide)
chain: LATINYPFEKG
B32: NANS_Y188_Y188H (peptide)
chain: QCTSAHPLQPE
B33: NEFL_Y442 (peptide)
chain: RSFPSYYTSHV
B34: NAXD_Y85_YF (peptide)
chain: GGCQEYTGAPF
B35: NDUFAF4_Y69 (peptide)
chain: FLKDVYVDSKD
B36: NDST1_Y714 (peptide)
chain: RAYSWYQHQRA
B37: NDUFA8_Y142_N140H (peptide)
chain: LPEHPYHSRPR

What was measured:
Assay in all cases: enrichment score (SH2-bound / input frequency) (ratio); bacterial display of known human phosphotyrosine sites (pTyr-Var adds point mutants) read by sequencing; higher = stronger binding; tyrosines were phosphorylated by kinases first
Conditions in all cases: peptide library: pTyr-Var
[1] = molecular target: SHP2 C-SH2 domain E139D
[2] = molecular target: SHP2 C-SH2 domain wild-type
[3] = molecular target: SHP2 N-SH2 domain L43F
[4] = molecular target: SHP2 N-SH2 domain T42A
[5] = molecular target: SHP2 N-SH2 domain T52S
[6] = molecular target: SHP2 N-SH2 domain wild-type
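Further: displayed peptides selected on beads carrying the immobilized SH2 domain, with library peptides lacking any tyrosine serving as negative controls.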

Row | Binder | enrichment score [1] | enrichment score [2] | enrichment score [3] | enrichment score [4] | enrichment score [5] | enrichment score [6]
1 | B1 | inactive: 0.935 | inactive: 0.842 | inactive: 0.69 | inactive: 0.916 | inactive: 0.801 | inactive: 0.94
2 | B2 | inactive: 0.871 | inactive: 0.701 | inactive: 0.582 | inactive: 0.706 | inactive: 0.676 | inactive: 0.711
3 | B3 | inactive: 0.988 | inactive: 1.15 | inactive: 1 | inactive: 0.996 | inactive: 0.793 | inactive: 1.04
4 | B4 | inactive: 0.908 | inactive: 0.897 | inactive: 0.918 | inactive: 0.775 | inactive: 0.877 | inactive: 1.15
5 | B5 | inactive: 0.621 | inactive: 0.529 | inactive: 0.578 | inactive: 0.577 | inactive: 0.533 | inactive: 0.663
6 | B6 | inactive: 1.19 | inactive: 1.04 | inactive: 1.18 | inactive: 1.02 | inactive: 1.14 | inactive: 1.06
7 | B7 | active: 3.29 | active: 3.34 | active: 4.49 | inactive: 2.88 | active: 4.59 | active: 3.98
8 | B8 | inactive: 0.663 | inactive: 0.639 | inactive: 0.792 | inactive: 0.575 | inactive: 1.13 | inactive: 0.736
9 | B9 | active: 4.39 | active: 3.59 | active: 3.92 | active: 3.27 | active: 3.49 | active: 3.41
10 | B10 | inactive: 0.903 | inactive: 0.625 | inactive: 0.737 | inactive: 0.519 | inactive: 0.617 | inactive: 0.566
11 | B11 | inactive: 1.6 | inactive: 1.39 | inactive: 1.41 | inactive: 1.47 | inactive: 1.42 | inactive: 1.29
12 | B12 | inactive: 0.863 | inactive: 0.666 | inactive: 0.905 | inactive: 0.543 | inactive: 0.993 | inactive: 1.06
13 | B13 | inactive: 2.67 | inactive: 2.91 | active: 3.98 | active: 5.1 | active: 4.66 | inactive: 2.77
14 | B14 | inactive: 0.824 | inactive: 0.845 | inactive: 0.795 | inactive: 0.8 | inactive: 1.31 | inactive: 0.817
15 | B15 | inactive: 1.57 | inactive: 1.35 | inactive: 1.28 | inactive: 1.48 | inactive: 1.3 | inactive: 1.59
16 | B16 | inactive: 1.62 | inactive: 2.14 | inactive: 1.64 | inactive: 3.05 | inactive: 1.48 | inactive: 1.64
17 | B17 | inactive: 1.49 | inactive: 1.07 | inactive: 1.43 | inactive: 1.23 | inactive: 1.47 | inactive: 0.948
18 | B18 | inactive: 2.41 | inactive: 2.14 | inactive: 2.06 | inactive: 2.29 | inactive: 2.02 | inactive: 2
19 | B19 | inactive: 0.873 | inactive: 0.818 | inactive: 1.04 | inactive: 0.863 | inactive: 0.944 | inactive: 0.747

Row | Binder | enrichment score [1] | enrichment score [2] | enrichment score [3] | enrichment score [4] | enrichment score [5] | enrichment score [6]
20 | B20 | inactive: 0.974 | inactive: 0.695 | inactive: 0.679 | inactive: 0.602 | inactive: 0.569 | inactive: 1.29
21 | B21 | inactive: 1.58 | inactive: 1.4 | inactive: 1.36 | inactive: 1.4 | inactive: 1.36 | inactive: 1.15
22 | B22 | inactive: 0.541 | inactive: 0.452 | inactive: 0.478 | inactive: 0.396 | inactive: 0.562 | inactive: 0.545
23 | B23 | inactive: 0.702 | inactive: 0.493 | inactive: 0.534 | inactive: 0.518 | inactive: 0.634 | inactive: 0.592
24 | B24 | inactive: 0.64 | inactive: 1.01 | inactive: 0.598 | inactive: 0.802 | inactive: 0.697 | inactive: 0.786
25 | B25 | inactive: 0.591 | inactive: 0.712 | inactive: 0.528 | inactive: 0.575 | inactive: 0.852 | inactive: 0.906
26 | B26 | inactive: 2.84 | inactive: 1.91 | inactive: 2.12 | inactive: 2.32 | inactive: 2.22 | inactive: 1.76
27 | B27 | inactive: 0.751 | inactive: 0.821 | inactive: 0.702 | inactive: 0.794 | inactive: 0.818 | inactive: 0.919
28 | B28 | inactive: 0.873 | inactive: 0.919 | inactive: 0.927 | inactive: 0.759 | inactive: 0.776 | inactive: 0.988
29 | B29 | inactive: 1.51 | inactive: 1.85 | inactive: 1.69 | inactive: 2.54 | inactive: 1.13 | inactive: 1.61
30 | B30 | inactive: 0.672 | inactive: 0.467 | inactive: 0.511 | inactive: 0.488 | inactive: 0.652 | inactive: 0.73
31 | B31 | inactive: 1.16 | inactive: 1.02 | inactive: 1.08 | inactive: 0.81 | inactive: 1.15 | inactive: 1.01
32 | B32 | inactive: 0.76 | inactive: 1.08 | inactive: 0.933 | inactive: 0.745 | inactive: 0.627 | inactive: 1.81
33 | B33 | inactive: 1.15 | inactive: 1.02 | inactive: 0.688 | inactive: 0.949 | inactive: 1.01 | inactive: 0.945
34 | B34 | inactive: 0.749 | inactive: 0.649 | inactive: 0.675 | inactive: 0.566 | inactive: 0.742 | inactive: 0.75
35 | B35 | inactive: 0.974 | inactive: 0.906 | inactive: 0.821 | inactive: 0.75 | inactive: 0.942 | inactive: 1.03
36 | B36 | inactive: 1.72 | inactive: 1.99 | inactive: 1.8 | inactive: 1.77 | inactive: 1.92 | inactive: 1.85
37 | B37 | inactive: 0.789 | inactive: 0.829 | inactive: 1.2 | inactive: 0.748 | inactive: 0.945 | inactive: 0.739
